Test results published in PubChem BioAssay AID2546 (National Center for Advancing Translational Sciences (NCATS), 2010).
Values joined by “and” are separate entries in the source; they are usually repeats but may differ in a detail not shown here. Identical values can stand only once. Out of some 310,000 compounds screened, about 11,000 (3.5%) were called active. Inconclusive means that the source gave no clear call. Such entries were picked first, then a sample of the others. Calls follow the shape of the dose curve; as a rule, active = well fitted inhibition curve with a large enough effect; inconclusive = small, poorly fitted or top-dose-only effect, or effect the other way; inactive = flat fitted curve, though single readings scatter. Where the call is inconclusive, the potency comes from a doubtful curve fit.

test: VP16 counterscreen qHTS for inhibitors of ROR gamma transcriptional activity; conditions: Drosophila S2 Gal4-VP16 UAS-luciferase, luminescence, 20 h; series mostly up to 53.6 µM; activity, negative = inhibition: at the top concentration;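 also: Gal4-VP16 expression switched on by copper sulfate through the metallothionein promoter; nearly all actives have a fitted effect of over 50% in size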
% is scaled to controls: 0 for no effect and ±100 for the full control effect; potency is read from the fitted curve at half-maximal effect; tags tell the direction and shape of the fitted curve.

SMILES | Potency | activity, negative = inhibition
O=S(=O)(c1ccc(Cl)cc1)N1CN2CCN(C2)C1 | inconclusive: 4.47 µM [inhibitor, single point] | –
CCCC[C@H]1C(=O)O[C@H](C)[C@H](NC(=O)c2cccc(NC=O)c2OC)C(=O)O[C@@H](C)[C@@H]1OC(=O)CC(C)C | active: 2.82 µM and active: 1.78 µM | –
N#CCCn1cc(C(=O)Nc2ccc([N+](=O)[O-])cc2)c(-c2ccc3c(c2)OCCO3)n1 | inconclusive: 35.5 µM [inhibitor, partial curve, poor fit] | –
O=C1NC(=O)N(Cc2ccc(F)cc2)C(=O)/C1=C\c1ccc([N+](=O)[O-])s1 | – | inactive: 8.28%
O=C(N/N=C/c1ccc([N+](=O)[O-])o1)c1cc([N+](=O)[O-])cc([N+](=O)[O-])c1O | – | inactive: -5.16%
CC(=O)Nc1c2sscc-2n(C)c1=O | active: 0.251 µM | –
CC(C)C[C@H]1C(=O)N2CCCC2[C@]2(O)O[C@](NC(=O)[C@@H]3C=C4c5cccc6[nH]c(Br)c(c56)C[C@H]4N(C)C3)(C(C)C)C(=O)N12 (stereo partly drawn) | inconclusive: 35.5 µM [inhibitor, single point] | –
Cc1nn(Cc2ccccc2)c(C)c1C(=O)NCc1ccccc1F | – | inactive: -4.49%
CCOc1cc2[nH]c(=S)n(CCCC(=O)N3CCC4(CC3)OCCO4)c(=O)c2cc1OCC | active: 20 µM | –
COc1ccc(C(Nc2ccccc2)P(=O)(Oc2ccccc2)Oc2ccccc2)cc1 (stereo not drawn) | inconclusive: 0.126 µM [inhibitor, full curve, poor fit] | –
C=C(C)CN1CC[C@@]23c4c5ccc(O)c4O[C@H]2c2[nH]c4ccccc4c2C[C@]3(O)[C@@H]1C5 | active: 28.2 µM | –
Cc1c(OCC(F)(F)F)ccnc1CS(=O)c1nc2ccccc2[nH]1 (stereo not drawn) | inconclusive: 15.8 µM [inhibitor, single point] | –
COc1ccc2c(c1OC)CN1CCc3cc4c(cc3[C@H]1C2)OCO4 | – | inactive: -8.16% [at 17 µM]
COC(=O)C[C@]1(C(=O)OC)CN(C#N)N(c2ccc(Cl)cc2)C12c1ccccc1-c1ccccc12 | active: 3.16 µM | –
C[C@H](N)Cc1ccccc1 | – | inactive: 4.23%
O=C(Nc1cccc2ccccc12)N1CCC2(CC1)OCCO2 | inconclusive: 5.62 µM [activator, full curve, poor fit] | –
COc1ccc(C(=O)Nc2cc(Cl)ccc2C(=O)O)cc1 | inconclusive: 15.8 µM [inhibitor, single point] | –
C=C1[C@@H](C)[C@H]2[C@H](Cc3ccccc3)NC(=O)[C@]23[C@H](OC(C)=O)/C=C/[C@](C)(O)C(=O)[C@@H](C)C/C=C/[C@H]3[C@@H]1O | – | inactive: 5.24%
O=C(Nc1ccccc1C(=O)N/N=C/c1ccco1)c1ccccc1Cl | inconclusive: 35.5 µM [inhibitor, single point] | –
O=C(Cc1ccccc1)N1CCN(Cc2cccc(Cl)c2)CC1 | – | inactive: -15.7%
O=C(NC1(C(F)(F)F)Oc2ccc(Cl)cc2O1)N1CCC2(CC1)OCCO2 (stereo not drawn) | inconclusive: 20 µM [inhibitor, single point] | –
O=C(N/N=C/c1c(O)n(CCc2ccccc2)c(=O)[nH]c1=O)c1ccccc1 | – | inactive: -9.09%
C=C(C)[C@H]1Cc2c(ccc3c2O[C@@H]2COc4cc(OC)c(OC)cc4[C@@H]2C3=O)O1 | inconclusive: 22.4 µM [inhibitor, partial curve, poor fit] and inconclusive: 10 nM [inhibitor, full curve, poor fit] | –

SMILES | Potency | activity, negative = inhibition
CN1CCC(O)(c2ccccc2)C(C(=O)c2ccccc2)C1 (stereo not drawn) | inconclusive: 35.5 µM [inhibitor, single point] | –
O=C(NC(=O)c1c(F)cccc1F)Nc1cc(Cl)c(OC(F)(F)C(F)C(F)(F)F)cc1Cl (stereo not drawn) | inconclusive: 17.8 µM [inhibitor, single point] | –
CCC(=NCCc1c[nH]c2ccccc12)c1c(O)n(C)c(=O)n(C)c1=O | inconclusive: 12.6 µM [inhibitor, single point] | –
CCOC(=O)c1cc2c(cn1)[nH]c1ccccc12 | inconclusive: 6.31 µM [activator, full curve, poor fit] | –
COc1cc2c(cc1OC)[C@H](C)NCC2 | – | inactive: 14.4% [at 17 µM]
CCc1ccc(N2C(=O)NC(=O)/C(=C/c3cccn3CCOc3ccc(C)cc3)C2=O)cc1 | inconclusive: 35.5 µM [inhibitor, single point] | –
CCCCn1c(=O)c(C(=O)NCc2ccccc2OC)c(O)c2ccccc21 | inconclusive: 35.5 µM [inhibitor, single point] | –
CC/C=C\C/C=C\C/C=C\C/C=C\C/C=C\CCCC(=O)NCCc1ccc(O)c(O)c1 | – | inactive: -11.1%
CCC[N+]12CCC(CC1)C(=C(c1ccccc1)c1ccccc1)C2 | inconclusive: 5.62 µM [activator, single point] | –
C=CCOCC1CO1 (stereo not drawn) | – | inactive: -3.6%
O=C(O)CC1OCC=C2CN3CCC45C6=CC(=O)C(=O)C([N+](=O)[O-])=C6NC4C1C2CC35 (stereo not drawn) | inconclusive: 12.6 µM [inhibitor, partial curve] | –
COc1ccc(N2C(=O)CC(N3CC=C(c4ccccc4)CC3)C2=O)cc1 (stereo not drawn) | inconclusive: 35.5 µM [inhibitor, single point] | –
CC1=C(O)C(=O)C=C2C1=CC=C1[C@]2(C)CC[C@@]2(C)C3C[C@](C)(C(=O)O)CC[C@@]3(C)CC[C@@]12C (stereo partly drawn) | inconclusive: 0.891 µM [inhibitor, full curve, poor fit] | –
C#CCOc1ccc2c(c1)c(C(C)=O)c(C)n2Cc1ccccc1 | – | inactive: -1.39%
COP(=S)(OC)Oc1ccc([N+](=O)[O-])c(C)c1 | – | inactive: -12.3%
O=C1/C(=C\c2cc3c(cc2Cl)OCO3)N2CCC1CC2 | inconclusive: 22.4 µM [inhibitor, single point] | –
CC(C)CC(C)Nc1ccc(Nc2ccccc2)cc1 (stereo not drawn) | inconclusive: 5.62 µM [activator, single point] | –
C[C@H](CCC(=O)O)C[C@H](C)C[C@H](C)C(=O)/C=C(\O)[C@H](C)C[C@H](C)C/C=C/[C@@H](C)[C@@H](O)[C@@H](C)[C@@H](O)C[C@@H]1CC[C@@](C)(C2CC[C@@](C)([C@@H](C)O)O2)O1 (stereo partly drawn) | active: 6.31 µM | –
O=C(Cc1ccccc1)N1CCN(Cc2cccc(Br)c2)CC1 | – | inactive: -4.74%
CN(C)c1ccc(N=Nc2ccccc2)cc1 | inconclusive: 12.6 µM [inhibitor, single point] | –
COc1cccc(N2C(=O)NC(=O)/C(=C/c3ccc4c5c(cccc35)CC4)C2=O)c1 | – | inactive: -7.88%
CCOCCc1c(O)[nH]c(=S)[nH]c1=O | inconclusive: 5.01 µM [inhibitor, partial curve] | –
O=C1C=C2C(=CCOC2O)O1 (stereo not drawn) | active: 0.891 µM | –

SMILES | Potency | activity, negative = inhibition
C[C@H]1CCC[C@H](O)CCCCCc2cc(O)cc(O)c2C(=O)O1 | inconclusive: 35.5 µM [inhibitor, single point] | –
C/C=C1/C[C@@H](C)[C@](O)(CO)C(=O)OCC2=CCN3CC[C@@H](OC1=O)C23 (stereo partly drawn) | inactive | –
O=c1c2ccc(Cl)cc2[nH]c(=S)n1-c1cccnc1 | inconclusive: 35.5 µM [inhibitor, single point] | –
C=CCn1c(O)c(/C(C)=N/NC(=S)Nc2ccccc2)c(=O)[nH]c1=O | – | inactive: 6.52%
C=C1C(=O)O[C@H]2[C@H]1[C@H](OC(=O)CC(=O)O[C@@H]1C[C@@H](C)[C@@H]3C=CC(=O)[C@@]3(C)[C@H]3OC(=O)C(=C)[C@H]13)C[C@@H](C)[C@H]1C=CC(=O)[C@]12C | active: 7.08 µM | –
CCn1c(O)c(/C=N/NC(=O)c2ccccc2)c(=O)n(CC)c1=S | inconclusive: 3.55 µM [inhibitor, full curve] | –
C=CCCC#N | – | inactive: -12.9%
CCOC(=O)CC(SP(=O)(OC)OC)C(=O)OCC (stereo not drawn) | – | inactive: -14.5%
O=c1c2ccccc2nc(-c2ccccc2)n1-c1ccccc1 | – | inactive: 4.01%
COCC(C)N(C(=O)CCl)c1c(C)csc1C (stereo not drawn) | – | inactive: -11%
BrC1C(Br)C(Br)C(Br)C(Br)C1Br (stereo not drawn) | active: 7.94 µM | –
CCCCn1c(-c2nn(C)cc2Cl)n[nH]c1=S | inconclusive: 17.8 µM [inhibitor, single point] | –
COc1ccc(-n2c(O)c(/C=C3\C=Nc4ccc(Br)cc43)c(=O)[nH]c2=O)c(OC)c1 | inconclusive: 35.5 µM [inhibitor, single point] | –
O=Cc1cn(Cc2ccccc2[N+](=O)[O-])c2ccccc12 | inconclusive: 25.1 µM [inhibitor, single point] | –
O=[N+]([O-])c1ccc(C2C3C(c4ccccc4)=NC4(CCCC4)N32)cc1 (stereo not drawn) | inconclusive: 3.55 µM [activator, single point] | –
CCC(=O)CCCCC[C@@H]1NC(=O)[C@H]2CCCCN2C(=O)[C@H]([C@@H](C)CC)NC(=O)[C@H](Cc2cn(OC)c3ccccc23)NC1=O | – | inactive: -1.65%
CC(C)N1C(=O)/C(=C/C=C/c2ccco2)C(=O)N(Cc2ccco2)C1=O | inconclusive: 35.5 µM [inhibitor, single point] | –
Cc1ccc(OCCOc2cccc(C=C3C(=O)NC(=O)NC3=O)c2)c(C)c1 | active: 3.98 µM | –
COc1ccc(NC(=S)NC(NC(=O)CF)C(Cl)(Cl)Cl)c([N+](=O)[O-])c1 (stereo not drawn) | inconclusive: 4.47 µM [activator, single point] | –
CCCCCCn1c(N)c(C(=O)NCCN2CCOCC2)c2nc3ccccc3nc21 | inconclusive: 35.5 µM [inhibitor, single point] | –
NC1=C(Br)C(=O)c2ccccc2C1=O | inconclusive: 35.5 µM [inhibitor, single point] | –
Cc1cc(=O)[nH]c(CCl)n1 | – | inactive: 21%
